# According to PMC11995724, “Antibiotic target discovery by integrated phenotypic and activity-based profiling of electrophilic fragments” (Cell chemical biology, 2025):
# Hit rate of the full screen: of about 3,200 compounds, about 75 (2%) showed an effect of 50% or more. This is one part of the list.
# Test system: T1, S. aureus MSSA476
# T1 construct: MSSA476
# Set-up: species or system S. aureus MSSA476 (TSB) or V. cholerae SAD30 (LB); 384-well bacterial growth screen at 25 uM, OD600 relative to DMSO control
# Details: relative growth, OD600, TSB; 25 µM; inhibitor
row,Compound,% of control remaining [%]
1,"C=CC(=O)N1CCC(Cc2nc(CC)no2)CC1 [3-A11, 1-{4-[(3-ethyl-1,2,4-oxadiazol-5-yl)methyl]piperidin-1-yl}prop-2-en-1-one]",108.663
2,"Cc1cccc(NC(=O)C(C#N)=Cc2ccc(F)cc2)c1 [9-E12, 2-cyano-3-(4-fluorophenyl)-N-(3-methylphenyl)prop-2-enamide]",96.4794
3,"C=CC(=O)NCCC1COCCO1 (centres unmarked) [2-H15, N-[2-(1,4-dioxan-2-yl)ethyl]prop-2-enamide]",130.2
4,"CC(C)(C)C(=O)NCc1ccc(C(=O)CCl)s1 [10-P10, N-{[5-(2-chloroacetyl)thiophen-2-yl]methyl}-2,2-dimethylpropanamide]",113.75
5,"C=CC(=O)NCC1(c2ccccc2Cl)CCCCC1 [1-A17, N-{[1-(2-chlorophenyl)cyclohexyl]methyl}prop-2-enamide]",110.066
6,"CCOC(=O)c1cnn2ccc(NC(=O)C(C)Cl)cc12 (centres unmarked) [5-N21, ethyl 5-(2-chloropropanamido)pyrazolo[1,5-a]pyridine-3-carboxylate]",112.933
7,"C=CC(=O)N1CCC(C(=O)NCCc2c(C)n[nH]c2C)CC1 [2-D04, N-[2-(3,5-dimethyl-1H-pyrazol-4-yl)ethyl]-1-(prop-2-enoyl)piperidine-4-carboxamide]",98.1723
8,"C=CC(=O)NCc1cc(C(F)(F)C(F)(F)F)on1 [3-B19, N-{[5-(1,1,2,2,2-pentafluoroethyl)-1,2-oxazol-3-yl]methyl}prop-2-enamide]",127.819
9,"CC(C)Oc1ccccc1C=C(C#N)C(=O)Nc1ccc(Cl)cc1 [9-L20, N-(4-chlorophenyl)-2-cyano-3-[2-(propan-2-yloxy)phenyl]prop-2-enamide]",108.464
10,"N#CC(=Cc1ccc(N2CCOCC2)cc1)C(=O)NCC1CCCO1 (centres unmarked) [9-O10, 2-cyano-3-[4-(morpholin-4-yl)phenyl]-N-[(oxolan-2-yl)methyl]prop-2-enamide]",98.5768
11,"CNC(=O)c1cc(OC2CCN(C(=O)C(C)Cl)C2)ccn1 (centres unmarked) [7-G03, 4-{[1-(2-chloropropanoyl)pyrrolidin-3-yl]oxy}-N-methylpyridine-2-carboxamide]",97.0173
12,"N#CC(=Cc1cccc(F)c1F)C(=O)NC(N)=O [8-H04, {2-cyano-2-[(2,3-difluorophenyl)methylidene]acetyl}urea]",101.909
13,"CSc1ccc(C(=O)CCl)cc1 [10-E07, 2-chloro-1-[4-(methylsulfanyl)phenyl]ethan-1-one]",2.1875
14,"CCNC(=O)C(C#N)=Cc1ccc(OC(F)F)cc1 [8-E05, 2-cyano-3-[4-(difluoromethoxy)phenyl]-N-ethylprop-2-enamide]",113.527
15,"CC(Cl)C(=O)Nc1c(Cl)cc(Cl)cc1Cl (centres unmarked) [6-K09, 2-chloro-N-(2,4,6-trichlorophenyl)propanamide]",95.2683
16,"O=C(NC1CCCN(C(=O)CCl)C1)c1cc2ccccc2o1 (centres unmarked) [5-D05, N-[1-(2-chloroacetyl)piperidin-3-yl]-1-benzofuran-2-carboxamide]",87.796
17,"C=CC(=O)N1Cc2ccccc2C[C@@H]1C(=O)NC1CC1 [2-G06, (3R)-N-cyclopropyl-2-(prop-2-enoyl)-1,2,3,4-tetrahydroisoquinoline-3-carboxamide]",100.261
18,"C=CC(=O)NCc1cccc2c1OCO2 [1-E07, N-[(1,3-dioxaindan-4-yl)methyl]prop-2-enamide]",104.791
19,"C=CC(=O)N1CCCC(CNS(=O)(=O)C2CC2)C1 (centres unmarked) [3-G21, N-{[1-(prop-2-enoyl)piperidin-3-yl]methyl}cyclopropanesulfonamide]",121.898
20,"C=CC(=O)NCCC(=O)N1CCC(C)(C)S(=O)(=O)CC1 [3-G19, N-[3-(7,7-dimethyl-1,1-dioxo-1lambda6,4-thiazepan-4-yl)-3-oxopropyl]prop-2-enamide]",120.505
21,"C=CC(=O)NCCn1cc(C2CCOC2)cn1 (centres unmarked) [2-L09, N-{2-[4-(oxolan-3-yl)-1H-pyrazol-1-yl]ethyl}prop-2-enamide]",121.497
22,"Cc1cc(C(=O)CCl)c(C)n1C(c1ccccc1)c1ccccc1 [10-I08, 2-chloro-1-[1-(diphenylmethyl)-2,5-dimethyl-1H-pyrrol-3-yl]ethan-1-one]",140.625

row,Compound,% of control remaining [%]
1,"C=CC(=O)N1CCC(C(=O)N2CCC(CC(N)=O)C2)CC1 (centres unmarked) [2-J14, 2-{1-[1-(prop-2-enoyl)piperidine-4-carbonyl]pyrrolidin-3-yl}acetamide]",126.023
2,"CCCCNC(=O)C(C#N)=Cc1c(Cl)nc2ccccn12 [9-O09, N-butyl-3-{2-chloroimidazo[1,2-a]pyridin-3-yl}-2-cyanoprop-2-enamide]",99.7753
3,"CC(Cl)C(=O)N1CCN(c2cc(-c3ccccc3F)n[nH]2)CC1 (centres unmarked) [6-N20, 2-chloro-1-{4-[3-(2-fluorophenyl)-1H-pyrazol-5-yl]piperazin-1-yl}propan-1-one]",94.9268
4,"Cl.O=C(CCl)NC1(c2nc(-c3ccccc3)c[nH]2)CCCC1 [7-J08, 2-chloro-N-[1-(4-phenyl-1H-imidazol-2-yl)cyclopentyl]acetamide hydrochloride]",106.122
5,"C=CC(=O)N1CCn2c(cnc2C(F)(F)F)C1 [3-B16, 1-[3-(trifluoromethyl)-5H,6H,7H,8H-imidazo[1,5-a]pyrazin-7-yl]prop-2-en-1-one]",133.043
6,"CC(C)NC(=O)C(C#N)=Cc1ccc(-c2ccccc2F)o1 [8-K18, 2-cyano-3-[5-(2-fluorophenyl)furan-2-yl]-N-(propan-2-yl)prop-2-enamide]",83.9834
7,"Cn1ccc(NC(=O)C(C#N)=Cc2ncccc2C(F)(F)F)n1 [8-F17, 2-cyano-N-(1-methyl-1H-pyrazol-3-yl)-3-[3-(trifluoromethyl)pyridin-2-yl]prop-2-enamide]",113.859
8,"N#CC(=Cc1ccc(Cl)cc1)C(N)=O [8-L21, 3-(4-chlorophenyl)-2-cyanoprop-2-enamide]",104.896
9,"C=CC(=O)NCc1nc(C(=O)O)c(C)s1 [1-K03, 5-methyl-2-[(prop-2-enamido)methyl]-1,3-thiazole-4-carboxylic acid]",90.022
10,"O=C(CCl)NC1CCSc2ccc(F)cc21 (centres unmarked) [5-M09, 2-chloro-N-(6-fluoro-3,4-dihydro-2H-1-benzothiopyran-4-yl)acetamide]",95.8106
11,"O=C(CCl)NCc1ccccc1OC1CCCC1 [6-C14, 2-chloro-N-{[2-(cyclopentyloxy)phenyl]methyl}acetamide]",100.732
12,"COCc1nnc([C@]23CC[C@H]2CCN3C(=O)C(C)Cl)o1 (mixture of isomers) [5-H15, rac-2-chloro-1-[(1R,5R)-1-[5-(methoxymethyl)-1,3,4-oxadiazol-2-yl]-2-azabicyclo[3.2.0]heptan-2-yl]propan-1-one]",104.918
13,"N#CC(=Cc1ccc(N)cc1)C(=O)N1CCCC1 [9-E14, 3-(4-aminophenyl)-2-(pyrrolidine-1-carbonyl)prop-2-enenitrile]",98.2772
14,"CCC(=O)Nc1ccc(C(=O)CCl)cc1 [10-C03, N-[4-(2-chloroacetyl)phenyl]propanamide]",1.5625
15,"CC(Cl)C(=O)NC[C@H]1CCCN(C2CC2)[C@@H]1c1ccnn1C (mixture of isomers) [6-P20, rac-2-chloro-N-{[(2R,3S)-1-cyclopropyl-2-(1-methyl-1H-pyrazol-5-yl)piperidin-3-yl]methyl}propanamide]",103.805
16,"CC(C)NC(=O)C(C#N)=Cc1ccc(Cl)c(Cl)c1 [9-M07, 2-cyano-3-(3,4-dichlorophenyl)-N-(propan-2-yl)prop-2-enamide]",103.071
17,"C=CC(=O)N1CCC(C(=O)NCc2ccc(S(N)(=O)=O)cc2)CC1 [3-N10, 1-(prop-2-enoyl)-N-[(4-sulfamoylphenyl)methyl]piperidine-4-carboxamide]",121.898
18,"CC(Cl)C(=O)NCCc1ccc[nH]1 (centres unmarked) [7-L09, 2-chloro-N-[2-(1H-pyrrol-2-yl)ethyl]propanamide]",113.972
19,"CC(Cl)C(=O)NCCN1CCn2nccc2C1 (centres unmarked) [5-D13, 2-chloro-N-(2-{4H,5H,6H,7H-pyrazolo[1,5-a]pyrazin-5-yl}ethyl)propanamide]",98.3607
20,"C=CC(=O)N1CCOCC1CC(=O)c1ccco1 (centres unmarked) [2-M17, 1-{3-[2-(furan-2-yl)-2-oxoethyl]morpholin-4-yl}prop-2-en-1-one]",106.527
21,"NC(=O)c1cc(-c2ccccc2)sc1NC(=O)CCl [6-M14, 2-(2-chloroacetamido)-5-phenylthiophene-3-carboxamide]",136.244
22,"Cc1ccccc1NC(=O)C(C#N)=Cc1c(Cl)nc2ccccn12 [9-I22, 3-{2-chloroimidazo[1,2-a]pyridin-3-yl}-2-cyano-N-(2-methylphenyl)prop-2-enamide]",71.0112
